Source: PubChem BioAssay AID1508624 (National Center for Advancing Translational Sciences (NCATS), 2021)
In all, about 48,000 compounds went through this assay and about 120 (0.25%) were called active. Inconclusive results (about 4%) are left out. Calls come from the whole dose curve; as a rule, active = well fitted activation curve with a large enough effect; inconclusive = small, poorly fitted or top-dose-only effect, or another doubt; inactive = no such curve, though single readings can be large or run the other way. Some of the results follow.

Experiment: Primary qHTS for Identification of Small Molecule Activators of Huntingtin-Antisense Promoter Activity; note: nearly all actives have a fitted effect of over 55% in size
Details: HEK293 HTT-AS promoter firefly luciferase reporter, 24 h; series mostly up to 57.5 µM; activity change, positive = activation: at the top concentration
Procedure, shortened: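 HEK293 cells carrying firefly luciferase reporters were seeded at 2,500 per well in Opti-MEM and cultured for 24 h. They were then treated with compounds at up to 57.5 uM final for 24 h at 37 degrees C before Dual-Glo luminescence readout.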

Activity change, positive = activation, inactive:
COc1cc(OC)c(NC(=O)c2c3c(nc4ccccc24)C(=O)N(C2CCCCC2)C3)cc1Cl -10.8%
CCOc1ccccc1NC(=O)CN1CCN(S(=O)(=O)c2ccc(Br)cc2)CC1 -11%
CCS(=O)(=O)N1CCc2cc(C(=O)Nc3ccc(OC)cc3OC)ccc21 -18.1%
CCC1CCCCN1Cc1cn2c(-c3ccc(Br)cc3)nnc2s1 (configuration not stated) -3.04%
CC(=O)c1cccc(NC(=O)c2nc(-c3ccccc3)n(-c3cccc(C)c3)n2)c1 -4.66%
COc1c(Cl)cc(Cl)cc1CNCCSc1nnnn1C -10.4%
O=C(Nc1nc2n(n1)C(c1ccc(F)cc1)C=C(c1ccccc1)N2)c1cccc([N+](=O)[O-])c1 (configuration not stated) -21.7%
CCC(C)NC(=O)CSc1nc2cc3c(cc2c(=O)n1CCCCCC(=O)NCc1ccc(OC)cc1)OCO3 (configuration not stated) -7.4%
CCCCc1ccc(NC(=O)CSc2nnc3[nH]c(=O)cc(C)n23)cc1 12%
CCCN1CCN(CCCNC(=O)c2ccc(CS(=O)c3ccc(OC)cc3)o2)CC1 (configuration not stated) -1.17%
CCCN(CCC)C(=O)CSc1nnc2cc(C)c3ccccc3n12 -7.23%
CCN(CC)CCNC(=O)c1cc2c(=O)oc3ccc(C)cc3c2s1 -7.77%
Cc1ccc(NC(=O)Cn2nnc3sc4c(c3c2=O)CCCC4)c(C)c1 -2.16%
Cc1cc(C)c(Cn2c3ccccc3c3cnn(CC(=O)NCC(C)c4ccccc4)c(=O)c32)c(C)c1 (configuration not stated) -11.2%
O=C(/C=C/c1ccc(Cl)cc1)Nc1nc(-c2cccs2)ns1 -37.2%
CCn1cc(C(=O)NCc2ccc(F)cc2)c(=O)c2cc(S(=O)(=O)N(C)C)ccc21 -7.75%
COc1cc(OC)c(NC(=O)CCNS(=O)(=O)c2ccc3c(c2)oc(=O)n3C)cc1Cl 21.1%
COc1ccc(-n2c(CCC(=O)O)ccc2-c2ccccc2)c(OC)c1 -15.7%
CC(=O)N1CCCc2cc(S(=O)(=O)N(Cc3ccccc3)C(C)C)ccc21 -37.5%
CCN1C(=O)c2ccccc2Sc2ccc(NC(=O)Nc3ccc(C(C)=O)cc3)cc21 -36.6%
Cc1ccccc1CNCCCSc1nnnn1-c1ccccc1 -2.08%
Cc1ccc2oc(=O)c3cnn(CC(=O)Nc4ccc(Br)cc4C)c3c2c1 -8.39%
CCc1cccc(C)c1NC(=O)COCc1cc(-c2ccc3c(c2)OCO3)on1 -25.4%
Cc1cc(C)c(Cn2c(C)c(CNCc3ccccc3C)c(C(=O)O)c2C)c(C)c1 -17.8%
CC1CCCCN1C(=O)CSc1nc2ccccc2nc1Cc1ccc(Cl)cc1 (configuration not stated) -41%
O=C(c1ccco1)N(Cc1cccnc1)c1nc2c(F)cccc2s1 -11.9%
Cc1cccc(NC(=O)c2ccc(F)c(S(=O)(=O)N(C)C3CCCCC3)c2)c1 -28.4%
CCOc1ccc(C(=O)N2CCN(Cc3cc(=O)n4nc(-c5cccc(OC)c5)sc4n3)CC2)cc1 0.523%
COc1ccc(NC(=O)C(C)n2nc(C)c3c(C)n(-c4ccccc4)nc3c2=O)cc1Cl (configuration not stated) -13.9%
CCOCCCNC(=O)C(c1ccc(Cl)cc1)N(Cc1ccc2c(c1)OCO2)C(=O)c1ccccc1O (configuration not stated) -9.98%
CCN(Cc1nc(-c2ccc(OC)cc2)oc1C)S(=O)(=O)c1ccc(Cl)cc1 -9.7%
COc1ccc(-c2nc(S(=O)(=O)c3ccccc3)c(N3CCCCC3)o2)cc1 16.5%
COc1ccc(N2CCN(C(=O)c3cccn4c(=O)c5ccc(Cl)cc5nc34)CC2)cc1 2.92%
COc1ccc(NCc2nc3ccccc3n2CCOc2ccc(C)cc2)cc1 -52.5%
O=C(NCC(c1ccc(Cl)cc1)N1CCCCC1)c1ccccc1 (configuration not stated) -8.26%
CCCOc1ccc(C(=O)N(Cc2cccs2)C2CCS(=O)(=O)C2)cc1 (configuration not stated) -4.82%
Cc1ccc(NCc2nc3ccccc3n2CCOc2ccccc2C)cc1 -3.05%
COc1cc(OC)cc(-c2nc3nc(C)c(CCC(=O)Nc4ccc(C)cc4)c(C)n3n2)c1 -2.03%
Nc1c(C(=O)Nc2ccccc2Cl)nnn1Cc1cccc(Cl)c1 -14.8%
CCNc1nc2c(c(=O)n(C)c(=O)n2C)n1CC(O)COc1ccccc1 (configuration not stated) -22.1%
COC(=O)c1cc(NC(=O)c2cnc(SC)nc2-c2ccccc2)cc(C(=O)OC)c1 -5.5%
Cc1c(CCNS(=O)(=O)c2ccccc2)sc2nc(-c3ccc(Cl)cc3)nn12 -38.1%
Cc1c2cnn(CC(=O)O)c(=O)c2c(C)n1Cc1cccc(Cl)c1 0.157%
O=C(CC1N=C2c3ccccc3N=C(SCc3ccc(Cl)cc3)N2C1=O)NC1CCCCC1 (configuration not stated) 17.7%
Cc1ccc(CNC(=O)COCc2cc(-c3ccc4c(c3)OCO4)on2)cc1 3.37%
CCOc1ccc2cc(-c3nnc(Nc4ccccc4F)s3)c(=O)oc2c1 -1.13%
Cc1ccc(-c2cnc(NCc3ccc(C(C)C)cc3)n2C)cc1 -15.5%
O=C(NCc1cccc(Br)c1)c1ccc(-n2cnc3cccnc32)cc1 -13.4%
Cc1ccc(-n2ncc3c(N4CCC(C)CC4)ncnc32)cc1C -38.8%
Cc1cccc(-c2noc(CNC(=O)c3ccc(C)cc3C)n2)c1 -1.5% [at 11.5 µM, percent change from vehicle, -100% = no light]
COc1ccc(C(C(=O)NCc2ccccc2)N(C(=O)Cn2nnc3ccccc32)c2ccc(F)cc2)cc1 (configuration not stated) -10.9%
Cc1cc(C)c(S(=O)(=O)NCC(c2ccc(N(C)C)cc2)N2CCc3ccccc32)c(C)c1 (configuration not stated) -21.9%
CCOc1ccccc1CNC(=O)CSc1n[nH]c(-c2ccccc2Cl)n1 -23.1%
COc1ccc(CNC(=O)Cc2coc3ccc(C(C)C)cc23)cc1 -27%
O=C(CN1C(=O)COc2ccc(S(=O)(=O)N3CCCCC3)cc21)NCc1ccccc1Cl -26.2%
CCOC(=O)c1ccc(Nc2nc(C(=O)OCC)nc3ccccc23)cc1 -52.5%
Cc1ccc(C)c(CN2C(=O)c3ccccc3S(=O)(=O)c3ccc(C(=O)N4CCN(C)CC4)cc32)c1 -9.47%
Cc1cc(Nc2cc(Cl)ccc2C)n2nc(Cc3ccccc3)nc2n1 -10.9%
COc1cccc(CNC(=O)CCc2nc(-c3ccc(C)cc3)no2)c1 -14.6%
COc1ccccc1NC(=O)CSc1oc(-c2ccco2)nc1S(=O)(=O)c1ccc(Br)cc1 -18.1%
Cc1cc(OCCn2cc(C(=O)c3ccco3)c3ccccc32)ccc1Cl -26.3%
COc1ccc(-c2nnc(SCC(=O)Oc3cccc(C)c3C)o2)cc1 -48.1%
CCOc1cccc(C2c3[nH]c4ccccc4c3CCN2C(=O)CCc2ccccc2)c1 (configuration not stated) -29.1%
Cc1cccc(NC(=O)C2CCCN(c3nnc(-n4c(C)ccc4C)s3)C2)c1C (configuration not stated) -15.9%
O=C(NCc1noc2ccccc12)Nc1ccc(F)cc1F -9.55%
CCOC(=O)c1nc(Nc2ccccc2C)c2ccccc2n1 -17.5%
CCN(CC)S(=O)(=O)c1ccc2nc(NC(=O)c3ccc(Br)o3)sc2c1 6.65%
O=C(Nc1nc2ccc(Cl)cc2s1)c1ccc(S(=O)(=O)N2CCCC2)cc1 -7.9%
CCN(CC)c1ccc(C(=O)N2CCC(c3ccncc3)CC2)cc1 -32.3%
COc1ccc(C)cc1NC(=O)CN1C(=O)COc2ccc(S(=O)(=O)N3CCCCCC3)cc21 -19%
CCOC(=O)C1CCCN(C(=O)c2ccc3c(c2)N(Cc2cccc(Cl)c2)C(=O)c2ccccc2S3(=O)=O)C1 (configuration not stated) -31.3%
CCCN(C(=O)Cn1c(=O)oc2cc(Cl)ccc21)c1ccc(C(C)C)cc1 -14%
CC1CC2C3CCC4=CC(=O)C=C[C@]4(C)[C@@]3(F)[C@@H](O)C[C@]2(C)[C@@]1(O)C(=O)CO (some centres not stated) -7.33%
CC(C)c1ccc(NC(=O)CN2C(=O)c3cccc4cccc2c34)cc1 -10.2%
CCCN(CCC)S(=O)(=O)c1ccc(C(=O)O)cc1 -1.57%
CCc1ccc(S(=O)(=O)c2cn(C)c3cc(OC)c(OC)cc3c2=O)cc1 -1.68%
CCc1ccc2oc(C(=O)NCCc3ccc(OC)c(OC)c3)cc(=O)c2c1 0%
COc1ccccc1N1CCN(S(=O)(=O)c2cc(-c3cc(C)no3)ccc2C)CC1 -5.11%
COc1cccc(CN2C(=O)C3(SCC(=O)N3c3cc(C)cc(C)c3)c3ccccc32)c1 (configuration not stated) -45.5%
O=C(c1ccc2c(c1)OCCO2)N(Cc1cccnc1)c1nc2ccc(Cl)cc2s1 24.2%
Cc1ccc(-c2nnn(CC(=O)N(CC(=O)NCCC(C)C)c3ccc(F)cc3)n2)cc1 -8.34%
CCN(CC)C(=O)c1cccc(C)c1 1.14%
Cc1ccc(C(C)C)c(OCC(=O)Nc2nc3c(s2)CCCC3)c1 -19.8%
CCCCCOC(=O)c1ccc(Nc2nc(C(=O)OCC)nc3ccccc23)cc1 -8.49%
COc1ccc(S(=O)(=O)Nc2cc(-c3cn4cccc(C)c4n3)ccc2C)cc1C -15.6%
O=C(NCCc1ccc(F)cc1)C(=O)NCC(c1ccc2c(c1)OCO2)N1CCOCC1 (configuration not stated) -3.82%
Cc1coc2c1c(C)cc1oc(=O)c(CC(=O)NCc3ccc(Cl)cc3)c(C)c12 -5.18%
COc1ccccc1Oc1nc2c(C)cccn2c(=O)c1/C=C(\C#N)c1nc2ccccc2[nH]1 -15.4%
Cc1nn(CC(=O)NCc2cccc(F)c2)c(=O)c2c(C)n(-c3ccc(Cl)cc3)nc12 -29.7%
COc1ccc(-n2cc(C(=O)NCc3ccc(Cl)cc3)c3ccccc3c2=O)cc1 -13.1%
Cc1ccc2c(c1)c1c(c(=O)n(-c3ccccc3)c(=O)n1CC(=O)NCCC1=CCCCC1)n2C -10.9%
COc1ccc(N(C(=O)c2ccccc2C)S(=O)(=O)c2ccc(C)cc2)cc1 -20.8%
CC1CN(C(=O)CCC(=O)NCc2cccs2)c2cc(Cl)ccc2O1 (configuration not stated) -1.64%
CCOC(=O)C1=C(CN2CCN(c3cc(C)ccc3C)CC2)NC(=O)NC1c1ccccc1 (configuration not stated) -41.9%
CCOC(=O)c1cc(-c2ccc(C)cc2)n(CC(=O)Nc2ccc(OC)c(Cl)c2)c1C -44.6%
Cc1ccc(CCNC(=O)c2cc3sccc3n2Cc2ccc(Cl)cc2)cc1 -22.4%
CC(C)(C)NCC(O)COc1ccc(NC(=O)NC2CCCCC2)cc1 (configuration not stated) 10.3%
